In all, about 310,000 compounds went through this assay and about 2,200 (0.71%) showed an effect of 50% or more. The effect is printed as a negative number. This is one part of the list.

Data on 89 molecules can be found in article PMC4336329 (PLoS ONE, 2015).

The target of the test is human ether-à-go-go-related gene (hERG) potassium channel (human, UniProt Q12809). The test can be described thus: primary screen, population patch clamp on CHO cells stably expressing hERG.
Sequence of human ether-à-go-go-related gene (hERG) potassium channel (Q12809 whole entry, looked up): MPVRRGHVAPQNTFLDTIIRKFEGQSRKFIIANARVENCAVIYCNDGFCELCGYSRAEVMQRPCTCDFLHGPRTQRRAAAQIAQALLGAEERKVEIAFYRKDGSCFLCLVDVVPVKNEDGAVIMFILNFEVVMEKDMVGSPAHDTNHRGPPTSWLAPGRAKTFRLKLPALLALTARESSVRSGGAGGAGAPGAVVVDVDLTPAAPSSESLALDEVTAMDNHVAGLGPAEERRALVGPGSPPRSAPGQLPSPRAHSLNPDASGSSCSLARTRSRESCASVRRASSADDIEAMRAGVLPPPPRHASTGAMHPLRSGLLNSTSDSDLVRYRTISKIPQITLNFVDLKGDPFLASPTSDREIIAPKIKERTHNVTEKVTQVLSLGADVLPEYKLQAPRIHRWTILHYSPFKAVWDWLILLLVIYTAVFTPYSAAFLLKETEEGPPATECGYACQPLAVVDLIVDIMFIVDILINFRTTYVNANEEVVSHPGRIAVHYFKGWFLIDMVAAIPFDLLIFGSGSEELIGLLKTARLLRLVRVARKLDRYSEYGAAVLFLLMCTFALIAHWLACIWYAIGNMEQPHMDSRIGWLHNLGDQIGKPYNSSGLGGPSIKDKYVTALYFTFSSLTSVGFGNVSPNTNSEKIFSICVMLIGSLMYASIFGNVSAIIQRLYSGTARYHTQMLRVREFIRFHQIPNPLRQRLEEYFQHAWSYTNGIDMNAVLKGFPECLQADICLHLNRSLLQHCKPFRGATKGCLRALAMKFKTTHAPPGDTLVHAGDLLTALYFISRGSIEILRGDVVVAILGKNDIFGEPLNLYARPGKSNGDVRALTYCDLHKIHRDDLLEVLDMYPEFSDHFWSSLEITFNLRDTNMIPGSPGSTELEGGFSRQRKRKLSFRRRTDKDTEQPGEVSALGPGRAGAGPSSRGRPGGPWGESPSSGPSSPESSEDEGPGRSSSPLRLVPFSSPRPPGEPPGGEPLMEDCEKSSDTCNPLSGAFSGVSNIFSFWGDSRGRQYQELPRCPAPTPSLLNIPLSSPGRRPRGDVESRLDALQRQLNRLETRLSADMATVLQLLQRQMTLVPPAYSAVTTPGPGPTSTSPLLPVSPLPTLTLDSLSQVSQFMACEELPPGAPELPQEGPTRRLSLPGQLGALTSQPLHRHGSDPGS
In the case of `Cc1cccc(C)c1OCc1cc(C(=O)N2CCN(C3CCCC3)CC2)no1`, the “hERG current change (%, negative = inhibition) at 1uM” value is given as -6.31%. To `O=C(Nc1nnc(S(=O)(=O)N2CCOCC2)s1)c1ccccc1` belongs 8.42%; to `CCN(CC)C(=O)N1CCN(c2c([N+](=O)[O-])c(=O)oc3ccccc23)CC1`, -0.622%. To `COc1ccc(CC(=O)Nc2ccc3c(C)cc(=O)oc3c2)cc1OC` belongs 13.6%; to `Cc1ccc(NC(=O)CSc2nnc(-c3ccncc3)n2C)cc1C`, 17.3%; to `COc1ccc(-c2nnnn2C(C)C)cc1`, 11.1%. Regarding `Cc1cc(C)n(-c2nnc(C)n2NC(=O)c2cccc(Cl)c2)n1`, the “hERG current change (%, negative = inhibition) at 1uM” value is 5.39%. To `CN1CCc2c(sc3c2C(=O)NC(c2cn(Cc4ccccc4)c4ccccc24)N3)C1` (centres unmarked) belongs -0.497%; to `Cn1nnnc1Sc1ncnc2scc(-c3ccc(Cl)cc3)c12`, 10.9%.

With `COc1ccc(CNC(=O)COC(=O)c2cc(-c3cccs3)nc3ccccc23)cc1OC`, the “hERG current change (%, negative = inhibition) at 1uM” value amounted to 18.5%. For `Fc1ccc(N/N=C(/c2ccccc2)c2ccccn2)cc1`, the “hERG current change (%, negative = inhibition) at 1uM” value turned out to be 3.53%. To `COc1ccc(CC(=O)OCC(=O)NCc2ccccc2Cl)cc1` belongs 14.8%.

`O=C(Nc1nc(-c2ccc(Cl)cc2Cl)cs1)c1ccc(OCC2CCCO2)cc1` (centres unmarked): the “hERG current change (%, negative = inhibition) at 1uM” value was 9.41%. For the molecule `CCN1CCN(C(=O)c2ccc(CS(=O)(=O)Cc3ccccc3C)o2)CC1`, the “hERG current change (%, negative = inhibition) at 1uM” value was found to be 17.2%. For the molecule `COc1cc(C(=O)NC(=S)Nc2ccc3oc(=O)ccc3c2)cc(OC)c1OC`, the “hERG current change (%, negative = inhibition) at 1uM” value is reported as 9.79%. As to `CC1(C(=O)NCCCN2CCOCC2)Oc2cccnc2NC1=O` (centres unmarked), the “hERG current change (%, negative = inhibition) at 1uM” value is listed as 12.7%. As for `O=C(c1ccccn1)c1conc1C(=O)c1ccc(Br)cc1`, the figure is -11.2%; as for `CCCCN(CCCC)C(=O)c1sc2nc(N3CCOCC3)c3c(c2c1N)CCCC3`, 7.71%; as for `C/C(=N\O)c1ccccc1C(=O)O`, 6.94%. Regarding `COc1ccccc1CC1S/C(=N/N=C/c2ccco2)NC1=O` (centres unmarked), the “hERG current change (%, negative = inhibition) at 1uM” value came to 15%. Consider `CNP1(NC)=Nc2nn(-c3ccccc3)c(N)c2C(c2ccccc2)=N1`, for which the “hERG current change (%, negative = inhibition) at 1uM” value is 13.5%. To `CC1=CC(C)(C)NC(=O)N1c1ccc(C)cc1` belongs 5.77%; to `O=C(c1cccs1)n1nc(-c2ccco2)nc1SCc1ccccc1`, 9.25%. Take `CC(=O)c1ccc(OCC(C)C)c(CC(C(N)=O)C(N)=O)c1`: the “hERG current change (%, negative = inhibition) at 1uM” value amounted to 14.3%. To `CCc1ccc(NC(=O)CNC(=O)Cn2ccc3ccccc3c2=O)cc1` belongs 14.8%.

In the case of `Cc1cc(-c2ccccc2C(=O)NCc2ccccc2)on1`, the “hERG current change (%, negative = inhibition) at 1uM” value amounted to 14.4%.

Turning to `COc1cccc(-c2nc(CS(=O)(=O)CC(=O)NCc3ccc(Cl)cc3)c(C)o2)c1`, the “hERG current change (%, negative = inhibition) at 1uM” value was 9.11%. With `COC(=O)C1C(C(=O)OC)C1(c1ccccc1)c1ccccc1` (centres unmarked), the “hERG current change (%, negative = inhibition) at 1uM” value came to 13.8%. As for `O=C(CSc1ccc(-c2cccs2)nn1)N1CCCCC1`, the figure is 8.19%. For `Cn1c(SCC(=O)Nc2nc3ccccc3s2)nnc1-c1ccccc1`, the “hERG current change (%, negative = inhibition) at 1uM” value came to 9.6%.

As to `O=C(Nc1ccccc1F)Nc1cccnc1Cl`, the “hERG current change (%, negative = inhibition) at 1uM” value is on record as 18.1%.

With `CCCC(=O)OCC(=O)NC1CCCc2ccccc21` (centres unmarked), the “hERG current change (%, negative = inhibition) at 1uM” value came out at 14.4%.

For `CCn1c(C(C)C)n[nH]c1=S`, the “hERG current change (%, negative = inhibition) at 1uM” value was found to be 15.5%.

Take `CCc1cc2c(=O)[nH]cnc2s1`: the “hERG current change (%, negative = inhibition) at 1uM” value was 4.62%. As for `O=C1CSC(c2cn(-c3ccccc3)nc2-c2cc3ccccc3oc2=O)N1Cc1ccccc1` (centres unmarked), the “hERG current change (%, negative = inhibition) at 1uM” value came to 17.2%. On to `COC(=O)C1=C(c2ccc(F)cc2OCc2ccccc2)C[C@@H]2CC[C@H]1N2C(=O)NCc1ccc(N(C)C)cc1`, for which the “hERG current change (%, negative = inhibition) at 1uM” value worked out at 12.2%.

For the molecule `Fc1cccc(CCN2CCNC[C@@H]2Cc2ccccc2)c1`, the “hERG current change (%, negative = inhibition) at 1uM” value worked out at 14.6%. As to `CCc1cccc(NC(=O)CCc2c(C)nn(-c3ccc(N4CCOCC4)nn3)c2C)c1`, the “hERG current change (%, negative = inhibition) at 1uM” value was -10.2%. As for `O=Cc1cccn1-c1nccc(-c2ccco2)n1`, the figure is 0.442%.

`CC(C)CCNC(=O)NC(=O)COC(=O)CCN=C1NS(=O)(=O)c2ccccc21`: the “hERG current change (%, negative = inhibition) at 1uM” value is 10.4%. To `COCCCN1C(=O)c2ccc(C(=O)N3CCN(c4ccc(OC)cc4)CC3)cc2C1=O` belongs 2.63%; to `O=c1[nH]nc(CSCc2ccccc2Cl)[nH]1`, 11.6%. As for `COc1ccccc1N1CC(C(=O)Nc2cc(C(F)(F)F)ccc2N2CCCC2)CC1=O` (centres unmarked), the “hERG current change (%, negative = inhibition) at 1uM” value turned out to be 6.4%. Regarding `Cn1cccc1CC(=O)NNC(=S)NC(=O)c1ccccc1Br`, the “hERG current change (%, negative = inhibition) at 1uM” value came out at 15.5%. As to `CC(=O)Nc1ccc(Nc2c3c4c(cccc4n(C)c2=O)C(=O)c2ccccc2-3)cc1`, the “hERG current change (%, negative = inhibition) at 1uM” value is 10.6%. As for `COc1cccc(-c2onc3ccc(C(=O)/C=C/N(C)C)cc23)c1`, the figure is 10.2%. To `CCOc1ccc(/C=C2\CCC(C3CCCC3)C2=O)cc1` (centres unmarked) belongs 15.4%; to `C/C(=N\NC(=O)CN(c1ccc(Oc2ccccc2)cc1)S(C)(=O)=O)C(C)(C)C`, 12.8%. With `Cc1csc(Nc2ccc(Cl)cc2)n1`, the “hERG current change (%, negative = inhibition) at 1uM” value was 6.43%.

Regarding `N#Cc1nc(COc2ccccc2)oc1N1CCCC1`, the “hERG current change (%, negative = inhibition) at 1uM” value is on record as 1.32%. `COc1cc2cc(CN(C(=O)NC3CCCCC3)C3CCCC3)c(=O)[nH]c2cc1OC`: the “hERG current change (%, negative = inhibition) at 1uM” value worked out at 6.78%. Consider `Cc1cc(Nc2cccc(F)c2)n2ncnc2n1`, for which the “hERG current change (%, negative = inhibition) at 1uM” value was -0.775%. As for `CSC(=S)N/N=C/c1c[nH]c2ccccc12`, the figure is 12.7%; as for `COc1ccc(/C(O)=C2/C(=O)C(=O)N(CCN(C)C)C2c2ccc(F)cc2)cc1Cl` (centres unmarked), 11.7%; as for `N#C/C(=N\Nc1ccc(S(=O)(=O)N2CCCCCC2)cc1)C(N)=S`, 11.3%. As to `Cc1cccc(OC(=O)NCCOC(=O)N(O)c2ccc(Cl)cc2)c1`, the “hERG current change (%, negative = inhibition) at 1uM” value is given as 1.04%. To `O=C(NCc1nc2ccccc2[nH]1)C1=C[C@@H](C2CC2)C[C@@H](OCc2ccc(CO)cc2)O1` belongs 7.48%; to `Cc1ccc(C(=O)c2cc([N+](=O)[O-])ccc2N2CCOCC2)c(C)c1`, 6.27%; to `CC(OC(=O)C12CC3CC(CC(O)(C3)C1)C2)C(N)=O` (centres unmarked), 9.69%.

For `O=C(N1CCN(c2ccc(F)cc2)CC1)C1(c2cccs2)CCOCC1`, the “hERG current change (%, negative = inhibition) at 1uM” value worked out at 6.11%. On to `COc1cc(OC)c2cc(C(=O)N/N=C/c3cccc(OC)c3O)[nH]c2c1`, for which the “hERG current change (%, negative = inhibition) at 1uM” value stood at 12.8%. As for `O=C(CSc1ccc(-c2ccc(-n3cccn3)cc2)nn1)Nc1ccccc1F`, the figure is 18%; as for `O=C(CSc1cn[nH]n1)Nc1ccc(O)c(C(=O)O)c1`, 8.3%. Regarding `C=CCn1c(Cn2nnc3ccccc32)nnc1SCC(=O)N/N=C/c1cc(Br)cc(OC)c1O`, the “hERG current change (%, negative = inhibition) at 1uM” value is recorded as 14.4%. In the case of `C=CCN1C(=O)N/C(=C/c2ccc(N3CCOCC3)o2)C1=O`, the “hERG current change (%, negative = inhibition) at 1uM” value was 4.6%. Regarding `O=C(NCC(c1ccco1)N1CCc2ccccc2C1)c1ccc(Cl)cc1` (centres unmarked), the “hERG current change (%, negative = inhibition) at 1uM” value is given as -17.2%.

Regarding `O=c1cnnc(N/N=C/c2ccccn2)[nH]1`, the “hERG current change (%, negative = inhibition) at 1uM” value worked out at 25.5%. As to `Cc1ccc(C(OCC(C)(C)C[N+](C)(C)C)c2ccccc2)cc1.[I-]` (centres unmarked), the “hERG current change (%, negative = inhibition) at 1uM” value is on record as -1.33%.

Consider `O=C(NC(=S)Nc1ccccn1)c1ccc([N+](=O)[O-])cc1`, for which the “hERG current change (%, negative = inhibition) at 1uM” value is reported as 5.46%. For `Cc1cc(C(C2C(=O)CC(C)(C)CC2=O)C2C(=O)CC(C)(C)CC2=O)cc(C)c1OC(F)F`, the “hERG current change (%, negative = inhibition) at 1uM” value is recorded as -3.24%.

As to `Cc1nnc2ccc(-c3ccc(NC(=O)Cc4cccs4)cc3)nn12`, the “hERG current change (%, negative = inhibition) at 1uM” value worked out at 4.96%.

As for `CCOC(=O)N1CCN(C(=O)COc2ccc(S(=O)(=O)NCc3ccccc3)cc2)CC1`, the “hERG current change (%, negative = inhibition) at 1uM” value is reported as -16%.

Take `Cc1cccc(NC(=O)/C(C#N)=C/c2cccc([N+](=O)[O-])c2)n1`: the “hERG current change (%, negative = inhibition) at 1uM” value was 16%. To `COc1ccc(CCNCc2c(OC)ccc3ccccc23)cc1.O=C(O)C(=O)O` belongs 5.29%. To `CCCn1c2c(c(O)c(C(=O)Nc3ncccc3C)c1=O)CCCC2` belongs 5.67%; to `CCn1c(SCC(=O)NC2CCCC2)nnc1-c1cccnc1`, 11.2%. As for `CCOc1ccc(OCC)c(NC(=O)C2CCN(c3cnccn3)CC2)c1`, the figure is 11.5%; as for `O=C(c1cc(C2CC2)nn1-c1ccccc1)N1CCN(Cc2c(F)cccc2Cl)CC1`, -19.4%; as for `O=C(N/C=C/c1ccco1)NCc1ccccc1`, 15.2%. Turning to `COc1ccc2nc(SCC(=O)Nc3ccccc3)[nH]c2c1`, the “hERG current change (%, negative = inhibition) at 1uM” value was 10.6%. `CCCC(=O)Nc1nnc(S(=O)(=O)N(CC(C)C)c2ccccc2)s1`: the “hERG current change (%, negative = inhibition) at 1uM” value is given as 14.9%. As for `O=C(NNC(=S)NC(=O)c1cccs1)c1ccc(NC(=O)c2ccccc2)cc1`, the figure is 15.3%; as for `O=C(O)CC(c1ccccc1F)N1Cc2ccccc2C1=O` (centres unmarked), 5.14%; as for `O=C(Cn1ncc2c([nH]c3ccccc32)c1=O)N1CCN(c2ccccc2F)CC1`, 2.27%.

As to `COc1cc([N+](=O)[O-])ccc1NC(=O)Cc1ccccc1`, the “hERG current change (%, negative = inhibition) at 1uM” value amounted to 7.83%. As for `Cc1ccc2nc(N(CCN(C)C)C(=O)c3cc(Cl)sc3Cl)sc2c1.Cl`, the figure is 8.61%. To `COCCN(C(=O)C1=COCCO1)c1c(N)n(Cc2ccccc2)c(=O)[nH]c1=O` belongs 20%. Take `CN1CCN(CC(=O)N/N=C/c2ccc(F)c(F)c2)CC1`: the “hERG current change (%, negative = inhibition) at 1uM” value worked out at 14.1%. On to `COc1cc(/C=C(/C#N)C(=O)c2c(C)[nH]c3ccccc23)ccc1OCC#N`, for which the “hERG current change (%, negative = inhibition) at 1uM” value is 9.37%.
